# In all, about 310,000 compounds went through this assay and about 18,000 (5.8%) were called active. The shares of active, inactive and inconclusive entries below differ from those in the screen. The call rests on the fitted dose curve; in most records, active means well fitted inhibition curve with a large enough effect; inconclusive means small, poorly fitted or top-dose-only effect, or another doubt; inactive means no such curve, though single readings can be large or run the other way. Potencies of inconclusive entries are left out as doubtful fits.
# Experiment: Primary qHTS for delayed death inhibitors of the malarial parasite plastid, 48 hour incubation
# Conditions: P. falciparum luciferase growth in erythrocytes; series mostly up to 28.7 µM
# Procedure, shortened: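 Parasite viability was followed by luminescence of a genomically integrated firefly luciferase. Cultures held 0.1% parasitemia at 2% hematocrit (final), incubated under 5% CO2 at 37 C.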
# Potency means the concentration at half of the fitted maximal effect; tags describe the fitted curve by direction and shape.
row,Compound,Potency
1,COC(=O)C1=C(c2ccccc2OCc2ccccc2)C[C@@H]2CC[C@H]1N2C(=O)NCCOc1ccccc1Cl,active: 5.22 µM
2,COc1cc(CN(C2CCCCC2C)S(=O)(=O)c2ccc(S(=O)(=O)NC3CC3)cc2)cc(OC)c1OC (stereo not drawn),active: 8.28 µM
3,O=C(CN1CCCC1)Nc1c(C(=O)C2CC2)oc2ccccc12,"inconclusive [inhibitor, single point]"
4,O=C(Cn1c(=O)c2sccc2n(Cc2cccc([N+](=O)[O-])c2)c1=O)NCCc1ccccc1,"inconclusive [inhibitor, single point]"
5,COc1ccc(/C=C/c2onc(C)c2S(=O)(=O)N2CCC(C(=O)N3CCCCCC3)CC2)cc1,active: 4.15 µM
6,O=C(NC(=O)N1CCN(c2ccc([N+](=O)[O-])cn2)CC1)c1ccccc1F,"inconclusive [inhibitor, partial curve]"
7,O=C(NCc1ccncc1)c1cn(-c2ccccc2)nc1-c1cccnc1,active: 14.7 µM
8,COc1ccc(NC(=O)COC(=O)c2cc(C)oc2C)c([N+](=O)[O-])c1,inactive
9,COc1ccc(-c2csc(NC(=S)NC(=O)/C=C/c3ccco3)n2)cc1Br,active: 10.4 µM
10,O=C(O)c1cccc(NC(=S)N/N=C/c2ccccc2OCc2ccc(Br)cc2)c1,inactive
11,CCc1c(C)nc2c(-c3ccccc3)c(C)nn2c1Nc1ccc(NC(C)=O)cc1,"inconclusive [inhibitor, single point]"
12,CN(C)S(=O)(=O)c1ccc(C(=O)OCC2CC2(Cl)Cl)cc1 (stereo not drawn),"inconclusive [inhibitor, single point]"
13,CCc1nnc(N/N=C/c2ccc(-c3ccc([N+](=O)[O-])cc3)o2)n1N,active: 11.7 µM
14,N#C/C(=C/c1ccc(N2CCOCC2)o1)C(=O)NC1CCCCC1,"inconclusive [inhibitor, single point]"
15,CCCC[C@H]1COCCS(=O)(=O)N1Cc1cccc(F)c1,inactive
16,N#CC(=C=[N-])C1=C(C#N)C(c2ccccc2F)C([n+]2ccccc2)C(O)(C2CC2)N1 (stereo not drawn),inactive
17,CCOc1ccc(NC(=O)[C@@H]2CCCN2C(=O)c2cccs2)cc1S(=O)(=O)N1CCOCC1,"inconclusive [inhibitor, single point]"
18,Cc1nnc(Oc2ccc([N+](=O)[O-])cc2)c2ccccc12,inactive
19,CCCc1cc(C(=O)N2CCCC(CO)(CCCc3ccccc3)C2)n(C)n1 (stereo not drawn),"inconclusive [inhibitor, single point]"
20,COc1ccc(Nc2nc(N)nc(CSc3n[nH]c(-c4ccccc4)n3)n2)cc1,"inconclusive [inhibitor, single point]"
21,Cc1ccc(C)c(OCc2nnc(SCC(=O)NCc3ccc4c(c3)OCO4)o2)c1,"inconclusive [inhibitor, single point]"
22,Cn1c(=O)c2c(nc(SCCCO)n2Cc2ccccc2Cl)n(C)c1=O,"inconclusive [inhibitor, partial curve]"

row,Compound,Potency
1,CN1C(=O)/C(=C/c2ccc(Cl)s2)C(=O)NC1=S,inactive
2,CC(C)c1ccc(NC(=O)Nc2cc3sccc3n2C)cc1,"inconclusive [inhibitor, partial curve, poor fit]"
3,CC(C)(C)SCCNC(=O)c1cccc([N+](=O)[O-])c1,"inconclusive [inhibitor, single point]"
4,COc1ccc(OC)c(NC(=O)c2sc3ncnc(N4CCN(c5ccccn5)CC4)c3c2C)c1,active: 8.28 µM
5,COc1ccc(/C=N/NC(=O)c2cccc(NC(=O)c3ccc(F)cc3)c2)c(C(=O)O)c1OC,"inconclusive [inhibitor, partial curve]"
6,COc1ccc(-c2ccc(SCC(=O)Nc3nccs3)nn2)cc1OC,inactive
7,OCCCc1nc2n(n1)C(c1ccccc1)C=C(c1ccc(F)cc1)N2 (stereo not drawn),"inconclusive [inhibitor, single point]"
8,Cc1nn(-c2nnc(NC3CCCCC3)nn2)c(C)c1Br,"inconclusive [inhibitor, full curve]"
9,CCOc1ccc(CN2CCCC(N3CCN(c4ccc(OC)cc4)CC3)C2)cc1 (stereo not drawn),"inconclusive [inhibitor, single point]"
10,COc1ccccc1CC(=O)Nc1cc2oc3ccccc3c2cc1OC,"inconclusive [inhibitor, single point]"
11,O=C1NC(c2ccc(Cl)cc2)Oc2ccccc21 (stereo not drawn),inactive
12,COc1cccc(NC(=O)C2CCCN2C(=O)Nc2cccc(F)c2)c1 (stereo not drawn),"inconclusive [inhibitor, full curve]"
13,CN(CC1CCOCC1)C(=O)CC1C(=O)NCCN1Cc1cccc(Oc2ccccc2)c1 (stereo not drawn),"inconclusive [inhibitor, single point]"
14,Cc1ccc(C(=O)N2CCN(c3ccc(NC(=O)Cc4ccccc4)cc3)CC2)cc1,"inconclusive [inhibitor, partial curve, poor fit]"
15,O=C(O)c1cnn(-c2nc(-c3cccc([N+](=O)[O-])c3)cs2)c1C(F)(F)F,"inconclusive [inhibitor, full curve, poor fit]"
16,Nc1c(C(=O)NCC2CCCO2)sc2nc3c(c(-c4ccco4)c12)CC/C3=C\c1ccco1 (stereo not drawn),"inconclusive [inhibitor, single point]"
17,CCOC(=O)C1(Cc2ccccc2C)CCCN(C(=O)c2ccc3nccnc3c2)C1 (stereo not drawn),active: 13.1 µM
18,CCOC(=O)c1nnn(-c2nonc2N)c1-c1ccccc1,"inconclusive [inhibitor, partial curve, poor fit]"
19,CCCC(c1nnnn1C1CCCC1)N1CCN(c2ccccc2F)CC1 (stereo not drawn),"inconclusive [inhibitor, single point]"
20,CC(=O)Nc1ccc(S(=O)(=O)N[C@@H](C)C(=O)OCc2ccc(Cl)cc2)cc1,inactive
21,CC(=O)c1cccc(NC(=O)C2C(c3ccccc3)C2(Cl)Cl)c1 (stereo not drawn),"inconclusive [inhibitor, partial curve, poor fit]"
